From PubChem BioAssay AID1671194 (National Center for Advancing Translational Sciences (NCATS), 2021)
About 240 (0.17%) of roughly 140,000 compounds were called active. Inconclusive results, whose numbers are uncertain, are shown with a selection of clear calls. Calls come from the whole dose curve; as a rule, active = well fitted inhibition curve with a large enough effect; inconclusive = small, poorly fitted or top-dose-only effect; inactive = no such curve, though single readings can be large or run the other way. Potencies of inconclusive entries are doubtful fits and often do not repeat.

Assay: Primary qHTS assay for inhibitors of alpha-synuclein gene (SNCA) expression; note: nearly all actives have a fitted effect of over 45% in size;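 for activity change, negative = inhibition: plate controls were DMSO cells for no effect and cell-free wells for full effect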
Details: HEK-293 SNCA-luciferase knock-in, luminescence, 24 h; activity change, negative = inhibition: at 57.2 µM (top of the series) unless noted
Potency is the fitted concentration of half-maximal effect; tags give direction and shape of the fitted curve.

SMILES	Potency	activity change, negative = inhibition
COc1cc(C2c3c(-c4ccccc4O)n[nH]c3C(=O)N2Cc2ccco2)ccc1OCC(C)C (stereo not given)	inconclusive: 28.2 µM [inhibitor, single point]	–
COc1cc(NC(=O)Cn2c(N(C)Cc3ccccc3)nc(C)cc2=O)cc(OC)c1	inconclusive: 17.8 µM [inhibitor, single point]	–
Cc1cccc(C(=O)N2CC(N(C)Cc3cccnc3)C2)c1	–	inactive: 2.21%
O=C(NCCc1ccccc1)C1CC(=O)N(c2n[nH]c3cccc(F)c23)C1 (stereo not given)	–	inactive: -6.44%
COc1ccc(CNC(=O)C(N)c2c(C)n[nH]c2C)c(F)c1F (stereo not given)	–	inactive: 7.73%
O=C(c1ccc2nnc(-c3ccoc3)n2c1)N1CCOCC1	–	inactive: 19.6% [at 87.6 µM]
O=C(NCc1ccncc1)c1cc(C2CC2)nc2onc(C3CCCN3)c12 (stereo not given)	–	inactive: -0.933%
Cc1cc(C)nc(-n2nc(C)c3c2N(Cc2ccccc2)C(=O)CC3c2ccc(Cl)cc2)n1 (stereo not given)	inconclusive: 39.8 µM [inhibitor, single point]	–
COc1ccc(C(=O)N2CCN(c3nnc4cccc(C)n34)CC2)cc1F	–	inactive: 4.2%
Cc1cccc(-c2cccc(CN3CCC(N[S+](=O)([O-])c4cccc(C(F)(F)F)c4)CC3)c2)c1	inconclusive: 39.8 µM [inhibitor, single point]	–
O=C(CC1C(=O)N(c2ccc(F)cc2)C(=O)N1Cc1ccc2c(c1)OCO2)Nc1ccc(Cl)cc1 (stereo not given)	inconclusive: 25.1 µM [inhibitor, single point]	–
O=C(Nc1ccc(F)c(Cl)c1)c1cc2n(n1)CC(c1ccc3c(c1)OCO3)OC2 (stereo not given)	–	inactive: -4.42%
N#Cc1cccc(-c2cn3c(n2)N(C(=O)Cc2cccs2)CCC3)c1	–	inactive: -20.6%
COc1ccc(-c2nc3c(c(SC)n2)Cc2c(CO)cnc(C)c2O3)cc1	inconclusive: 22.4 µM [inhibitor, single point]	–
COc1ccc(-c2nc(C)nc3c2CCC3)c2ccc(C)nc12	–	inactive: 53.7%
Cn1nccc1C(=O)N1CCC2(CC1)OC(=O)N(Cc1ccccc1C#N)C2(C)c1ccccc1 (stereo not given)	inconclusive: 2 µM [inhibitor, full curve, poor fit]	–
Cc1ccc(CN2CC(C(=O)N3CCc4c(nc5cc(-c6ccccc6)[nH]n5c4=O)C3)CC2=O)cc1 (stereo not given)	–	inactive: -14.3%
Cc1ccc(CNC(=O)Cn2c(N3CCN(c4ccccc4)CC3)nc(C)cc2=O)cc1	inconclusive: 2 µM [inhibitor, single point]	–
O=C(c1ccc2c(c1)N(Cc1ccccc1F)C(=O)c1ccccc1S2(=O)=O)N1CCN(c2ccccn2)CC1	inconclusive: 2.82 µM [inhibitor, single point]	–
CN1C(=O)c2cccn2CC1C(=O)NC1CCCCCC1 (stereo not given)	inconclusive: 39.8 µM [inhibitor, single point]	–
Cc1cc(C=c2sc3nc4ccccc4n3c2=O)c(C)n1-c1ccccc1	inconclusive: 0.242 µM [inhibitor, full curve]	–
Cc1cc2c(cc1S(=O)(=O)Nc1ccc(OC(F)(F)F)cc1)OCC(=O)N2	inconclusive: 10 µM [inhibitor, partial curve, poor fit]	–

SMILES	Potency	activity change, negative = inhibition
COc1ccc(C(CC(=O)N(C)Cc2ccccn2)c2ccccc2)cc1 (stereo not given)	inconclusive: 14.1 µM [inhibitor, partial curve]	–
Cc1cc(-c2cc3[nH]ccc3c(C(=O)NCc3c(C)cc(C)[nH]c3=O)n2)ccn1	–	inactive: 44.5% [at 87.6 µM]
O=C1Nc2ccccc2C12CN(S(=O)(=O)c1cccs1)C2	inconclusive: 8.91 µM [inhibitor, partial curve, poor fit]	–
COc1ccc(S(=O)(=O)NCc2nc3nc(C)cc(C)n3n2)cc1	–	inactive: 2.46%
Cc1cc(NC(=O)N2CCCC(Cn3cnc4cccnc43)C2)ccc1Br (stereo not given)	–	inactive: 38.9%
CCn1nccc1C(=O)NCCC1CCN(C(=O)Nc2cccc(C)c2)CC1	inconclusive: 20 µM [inhibitor, single point]	–
FC(F)(F)c1ccc2nc([C@H]3CCN(Cc4ccccn4)C3)[nH]c2c1	–	inactive: 99.6% [at 87.6 µM]
COC(=O)CNC(=O)N1CC[C@@H]2COC(=O)N(Cc3ccccc3)[C@@H]2C1	–	inactive: -15.2%
COc1ccc(N2CCN(C(=O)Cn3c(N4CCc5ccccc5C4)nc(C)cc3=O)CC2)cc1	inconclusive: 39.8 µM [inhibitor, single point]	–
Cc1ccc2ncc(C(=O)c3ccc(C)c(C)c3)c(S(=O)(=O)c3ccc(F)cc3)c2c1	inconclusive: 39.8 µM [inhibitor, single point]	–
CCc1noc(-c2cn(C3CCCN(C(=O)c4ccc(C(C)(C)C)cc4)C3)nn2)n1 (stereo not given)	inconclusive: 0.708 µM [inhibitor, full curve, poor fit]	–
O=C(c1cccc(F)c1)N1CCC[C@@]2(CCN(C(c3ccccc3)c3ccccc3)C2)C1	inconclusive: 11.2 µM [inhibitor, partial curve, poor fit]	–
Cc1cccc(S(=O)(=O)N2C[C@@H]3CCCN4CCC[C@@H]([C@H]34)[C@H]2CCCC(=O)N2CCOCC2)c1	inconclusive: 39.8 µM [inhibitor, single point]	–
CCC(=O)C1=C(c2ccc(F)cc2)N(C(=O)CC)n2cnnc2S1	inconclusive: 20 µM [inhibitor, partial curve, poor fit]	–
CN(C)C(=O)c1ccc2c(c1)N(C)C(CC(=O)NC(C)(C)c1ccccc1)CO2 (stereo not given)	inconclusive: 28.2 µM [inhibitor, single point]	–
CCCNC(=O)Cc1csc2nc(C)c(-c3cc(C)n(-c4ccc(Cl)c(Cl)c4)n3)c(=O)n12	–	inactive: -24.8%
CCN1C(=O)c2ccccc2Sc2ccc(NC(=O)N3CCN(c4cc(C)ccc4C)CC3)cc21	inconclusive: 3.16 µM [inhibitor, partial curve, poor fit]	–
COc1ccc(CN2C=C(C(=O)OCc3noc(C4CCCCC4)n3)C(C)=NS2(=O)=O)cc1	inconclusive: 39.8 µM [inhibitor, single point]	–
COc1ccc(-c2noc(CC3CCN(C(=O)Cc4ccccc4Cl)CC3)n2)cc1	inconclusive: 31.6 µM [inhibitor, single point]	–
COc1ccc(C(=O)NCC(c2ccc3c(c2)OCO3)N2CCN(c3ccccc3F)CC2)cc1 (stereo not given)	inconclusive: 39.8 µM [inhibitor, single point]	–
Cc1cccc(NC(=O)N2CC(Oc3ccc(-c4nc(C)no4)cc3)C2)c1	inconclusive: 35.5 µM [inhibitor, single point]	–
COc1ccc(N2CCN(C(=O)Cn3nc(C)c4sc(C(C)C)nc4c3=O)CC2)cc1	inconclusive: 25.1 µM [inhibitor, single point]	–

SMILES	Potency	activity change, negative = inhibition
O=C(Cc1noc2ccccc12)N[C@@H]1COCC[C@@H]1OCc1ccccn1	–	inactive: 1.96%
CNC(=O)C1CCCCN1Cc1ccc(-c2ccsc2)cc1 (stereo not given)	–	inactive: 26.2% [at 87.6 µM]
CCO[C@H]1CN(C(=O)c2cc(N3CCCCC3)ccc2Cl)C[C@@H]1O	–	inactive: 5.01%
O=C(O)c1cnc(-c2ccc(F)cc2)nc1-c1ccncc1	inconclusive: 8.91 µM [inhibitor, single point]	–
CCCCN1C(=O)C(O)(CC(=O)c2ccc(C(C)(C)C)cc2)c2ccccc21 (stereo not given)	inconclusive: 35.5 µM [inhibitor, single point]	–
c1cc(-c2cc(-c3ccncc3)c3cncn3c2)cc(N2CCOCC2)c1	inconclusive: 35.5 µM [inhibitor, partial curve]	–
COc1cccc(CNC(=O)c2ccc(-n3c(C)cc4c3CCC(C)C4)cc2)c1 (stereo not given)	inconclusive: 0.199 µM [inhibitor, single point]	–
Cc1c(CN2CCN(c3ncc(F)cn3)CC2)[nH]c2ccc(F)cc12	inconclusive: 3.55 µM [inhibitor, partial curve, poor fit]	–
CCNc1ncnc2sc3c(c12)CCN(Cc1ccc[nH]1)C3	inconclusive: 10 µM [inhibitor, partial curve]	–
CCN(Cc1ccccc1)C(=O)c1cnn(-c2ccc(F)cc2)c1-n1cccc1	inconclusive: 39.8 µM [inhibitor, single point]	–
Cc1ccc(NC(=O)c2cnn3c2NC(c2ccccc2)=CC3c2ccccc2)cc1 (stereo not given)	inconclusive: 20 µM [inhibitor, partial curve, poor fit]	–
CN1CCCCCCN(C(=O)c2cccs2)[C@H]2CCC[C@H]2C1=O	–	inactive: -8.44%
CCC(C)SSc1ncc[nH]1 (stereo not given)	inconclusive: 42.9 µM [inhibitor, single point]	–
O=C1CC(c2ccccc2)N(C(=O)CNC(=O)c2n[nH]c3ccccc23)CCCCCCN1 (stereo not given)	inconclusive: 39.8 µM [inhibitor, partial curve, poor fit]	–
CN(Cc1ccccc1)C(=O)c1cc(-c2ccncc2)cn1C	inconclusive: 7.08 µM [inhibitor, partial curve, poor fit]	–
CN1C(C(=O)Nc2ccc(OC(F)(F)F)cc2)=CC(c2cccs2)=NS1(=O)=O	inconclusive: 39.8 µM [inhibitor, single point]	–
COc1cccc(NC(=O)Cn2c(=O)n(Cc3ccccc3)c(=O)c3ccccc32)c1	inconclusive: 39.8 µM [inhibitor, single point]	–
Cc1ccc(N(CC(=O)Nc2ccc(Cl)cc2)S(=O)(=O)c2cccc3nonc23)cc1	inconclusive: 39.8 µM [inhibitor, single point]	–
COCC(=O)NC[C@H]1O[C@@H](CC(=O)NCCN(C)C)[C@H](O)[C@@H]1O	inconclusive: 3.55 µM [inhibitor, partial curve, poor fit]	–
COCc1nncn1C1CCN(C(=O)c2ccc(OC)cc2)CC1	–	inactive: 3.84%
CCn1cc(C(=O)NCc2ccc(Cl)cc2)c(=O)c2cc(S(=O)(=O)N(C)C3CCCCC3)ccc21	inconclusive: 39.8 µM [inhibitor, single point]	–
